Assay results taken from the supplement of paper PMC3334620.
The full ranking holds about 33,000 sequences; the median of “E-score (-0.5 to 0.5)” is about -0.054, and the highest 2% start at about 0.39. This is one part of the list.

The sequences below were run against Ylr278c (UniProt Q05854) (assay: PBM E-score (8-mer binding enrichment) (E-score (-0.5 to 0.5)); higher = stronger / more preferred TF binding; most listed sequences are background and not binding sites). Conditions: protein concentration: 200 nM; construct: GST-DNA-binding domain.
In short: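 PURExpress in vitro transcription/translation supplied GST-tagged yeast transcription factors, either full-length or DNA-binding domain. Applied at about 100-200 nM to universal all-10-mer Agilent arrays double-stranded by primer extension, the bound protein was detected with fluorescent anti-GST. E-scores, modified Wilcoxon-Mann-Whitney statistics, were given by the Universal PBM Analysis Suite to ungapped eight-base words pooled with their reverse complements after masliner normalisation.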

In order of falling “PBM E-score” value:
1. AAACCGGA  0.438
2. GTGCCGGA  0.438
3. CCCTCCGA  0.405
4. CTGTCGGA  0.404
5. GAAGCTCC  0.358
6. CGGACGTC  0.338
7. CCGAGCCA  0.266
8. TACGGACA  0.257
9. ACCCGGGG  0.246
10. ATAAGTCC  0.236
11. CCCCCGCC  0.235
12. ACCGGGTA  0.219
13. CCGTCTCG  0.205
14. CCGTCCTC  0.168
15. CACCCGCC  0.163
16. ATATATAT  0.158
17. CGGGAAGC  0.129
18. CGGTACGC  0.129
19. CGCTTTTA  0.129
20. CGTCGCAC  0.127
21. GGACGGGA  0.111
22. ATCACGGC  0.101
23. GGAGCGAA  0.0989
24. CCTATTCG  0.0985
25. CTTACGGC  0.0961
26. GGAACTAC  0.0892
27. GATTACGC  0.0883
28. GTCCCGAA  0.0873
29. ATAGAAAT  0.0866
30. ACCGCGTG  0.0856
31. AACATGGG  0.0808
32. AGACAATA  0.0684
33. AATATGAT  0.0638
34. CCTGGTCC  0.0539
35. GCGAGAGC  0.0507
36. ATCACGCC  0.046
37. CGCGCAGC  0.0441
38. AGTGATTA  0.0438
39. GACGATAC  0.0377
40. ACGGGATG  0.0373
41. GCCACGGC  0.036
42. ATATTGGA  0.0229
43. CTCGGTCA  0.0207
44. GAGAACAC  0.0185
45. GAGTAAGA  0.0177
46. GAAAGCGA  0.00637
47. CTCTGATA  0.00527
48. AAATATCT  0.00279
49. GCTCCAGC  0.00053
50. ATGGCATC  -0.00077
51. ACCGCTAA  -0.0014
52. GGGCAGTA  -0.00183
53. CTGTGTCC  -0.00541
54. GGGAGCAA  -0.00688
55. ATAGTATG  -0.00786
56. AACACCCC  -0.00988
57. AGTGACGC  -0.0157
58. TCAGGAAA  -0.0178
59. CCTGTTCC  -0.0187
60. GAAAGTAC  -0.0189
61. GACACAGC  -0.024
62. TAGTATGA  -0.0268
63. CGAAAGAG  -0.0312
64. AGAGCGAG  -0.0316
65. ACCGTCTA  -0.0357
66. AGATTTCA  -0.0357
67. AGAGTTAT  -0.036
68. GACCAACA  -0.0396
69. ATCTTGTA  -0.0397
70. AGTGCAGC  -0.0398
71. AACACGCT  -0.0413
72. ACACGTGG  -0.0484
73. ACTCGGTA  -0.0549
74. GGCATAAC  -0.0552
75. ACGATCGA  -0.057
76. ACCTCAAA  -0.0594
77. AGAACGAG  -0.06
78. ATATCAAC  -0.0612
79. AATTTAAT  -0.0612
80. GAAAAACA  -0.0615
81. AGTCGTAA  -0.0627
82. TCATAGAA  -0.0632
83. ATAACCTC  -0.0638
84. GACGAGTA  -0.0638
85. ATCTATTC  -0.0659
86. ATCCCCAA  -0.0668
87. ACACAATA  -0.069
88. ACACACCA  -0.0699
89. AAATGCAT  -0.0713
90. CGACTATC  -0.0738
91. AATTTGCT  -0.0771
92. ACAAGTCA  -0.0817
93. GCATCATA  -0.0822
94. GTATTTGA  -0.0847
95. CAGGTGTC  -0.0869
96. CCTACGCC  -0.0875
97. AGCAAGGC  -0.0887
98. GAACCACA  -0.0927
99. ACTCTAGC  -0.0958
100. CCCTGGCA  -0.0965
101. AACTGCTA  -0.1
102. ATAGAAGA  -0.101
103. CCAATCGC  -0.103
104. CTTTTAGA  -0.105
105. GAGCACGC  -0.106
106. TATTAAGA  -0.106
107. AGAGCCCC  -0.11
108. GGCTCTCA  -0.112
109. CCATCATC  -0.113
110. TAGTGGGA  -0.113
111. CCAAGTAA  -0.116
112. AACGCTAG  -0.117
113. AACTAAGA  -0.117
114. CAGCATGA  -0.121
115. GCTCACAA  -0.122
116. CCCAAAGA  -0.123
117. GACGTGAC  -0.126
118. TCCAGGCA  -0.129
119. AATCATAC  -0.129
120. GTGCCCAC  -0.133
121. AATCTGAC  -0.133
122. GCAAATGA  -0.133
123. CGATGTCA  -0.135
124. CGTCCAAC  -0.136
125. GACGCTTA  -0.138
126. CTTTTCTC  -0.138
127. ACTTACGA  -0.142
128. AACCTTTA  -0.149
129. TAGGAGGA  -0.151
130. CGCCATAA  -0.153
131. ACATCCAT  -0.154
132. ATGACAGG  -0.154
133. TAGGGCGA  -0.155
134. TCCAGCCA  -0.156
135. GCTTAACC  -0.157
136. GTTCCTGA  -0.157
137. TAAGCCAA  -0.159
138. CAGTGTAG  -0.16
139. ACCCAGAT  -0.16
140. GACAGTGA  -0.162
141. GCTTTGCA  -0.163
142. CTAGGCTC  -0.163
143. GATCTAGA  -0.165
144. CATACAGC  -0.172
145. ACGTCTCT  -0.173
146. AAAGTCGA  -0.18
147. CCCAAGCA  -0.181
148. AGAATGTC  -0.183
149. AAGTGATC  -0.185
150. AGGGTGGA  -0.201
151. CATTATCA  -0.208
152. AGCGAAAG  -0.211
153. AGCCTCTG  -0.212
154. CTAGAGGC  -0.217
155. CAAGTCTA  -0.218
156. AAGACACA  -0.223
157. GGGTCACA  -0.225
158. TACACGCA  -0.227
159. AACCACTA  -0.234
160. CCACATAC  -0.235
161. TAGCCCTA  -0.236
162. CTGGCGCA  -0.242
163. ACATAGGT  -0.244
164. TCGAAGCA  -0.245
165. AGATGCTA  -0.246
166. ACACTTGA  -0.247
167. TACAGTGA  -0.253
168. GTAGACGA  -0.255
169. CATACTTA  -0.265
170. AAGATCAG  -0.272
171. TAATGAGA  -0.304
172. CAAATGCA  -0.347
